Data reported in PubChem BioAssay AID651567 (National Center for Advancing Translational Sciences (NCATS), 2012).
The whole screen tested about 1,200 compounds, of which about 10 (0.8%) were called active. Inconclusive results (about 4%) are left out. Calls come from the whole dose curve; as a rule, active = well fitted inhibition curve with a large enough effect; inconclusive = small, poorly fitted or top-dose-only effect; inactive = no such curve, though single readings can be large or run the other way. Some of the results follow.

assay: qHTS Assay to Find Inhibitors of Chronic Active B-Cell Receptor Signaling: Hit Validation in OCI-Ly3 Assay; conditions: OCI-Ly3 IkB-luciferase reporter, Chroma-Glo luminescence, 4 h; series mostly up to 46.1 µM; activity change, negative = inhibition: at the top concentration
Summary of the method: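 OCI-Ly3 cells in IMDM with 0.5% FBS get compound plus 80ng/ml doxycycline (dispensed solution), 4 hrs at 37C. Chroma-Glo read of green IkB-luc and red unfused luc; green/red ratio normalized to basal (0%) and 10 uM MG-132 (100%); concentration-response curves for each signal.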
% is set by controls: 0 for no effect and ±100 for the full control effect.

Activity change, negative = inhibition, inactive:
CCOc1ccccc1C1CC(=O)Nc2cc3c(cc21)OCCO3 (centres undefined) -3.49%, Cc1onc(-c2ccccc2)c1C(=O)Nc1cc(C(F)(F)F)ccc1N1CCOCC1 -2.04%, CCOC(=O)COc1cccc2c(=O)n(CC(=O)NCc3ccc(F)cc3)ccc12 -1.96%, CCOC(=O)/C=C/C(=O)OCC(=O)Nc1ccc(OC)c(Cl)c1 -1.28%, Cc1ccsc1/C=C/C1=NCCCN1C -0.623%, O=C(CSc1cc(Cl)ccc1Cl)Nc1ccc(N2CCOCC2)cc1 -1.42%, CCCCC[C@H](O)/C=C/[C@@H]1[C@@H](C/C=C\CCCC(=O)OC)[C@@H](O)C[C@H]1O 0.506%, COc1cc(/C=C2\OC(=O)c3c(OC)cccc32)ccc1O -3.21%, COc1cc(-c2noc(C)c2C#Cc2ccsc2)cc(OC)c1OC -5.39%, O=C(N/N=C/c1ccc(Cl)cc1)c1sccc1OCc1ccc(F)cc1 -7.2%, COc1ccccc1C(=O)Nc1ccccc1SC(=O)c1ccccc1OC -25.4%, CCOC(=O)c1ccc(NC(=O)Nc2ccon2)cc1 -4.1%, COc1ccc(NC(=S)N=Nc2c(O)[nH]c3ccccc23)cc1 -8.1%, COCCNC(=S)N/N=C(\C)c1ccccc1F -0.283%, CCC1CCCCN1C(=S)NC(=O)c1cccs1 (centres undefined) -0.476%, COc1cc2c(cc1OC)-c1cc(NC3CCCCCC3)nc(=O)n1CC2 -2.73%, COc1ccc(/C=N/NC(=O)CCn2cnc(-c3ccccc3)c2-c2ccccc2)cc1 -18.7%, COc1ccc2c(c1)C(C)=CC(C)(C)N2S(=O)(=O)c1ccc(C)cc1 -3.93%, Cc1ccc2c(c1)C(=O)C(=O)N2CCOc1ccccc1 -2.23%, CCn1c2ccccc2c2cc(NC(=O)c3cc(OC)c(OC)c(OC)c3)ccc21 -9.48%, CCN(C(=O)c1cnc(NC(C)C)cc1C(F)(F)F)c1ccc(Cl)cc1Cl -1.47%, COc1ccc(COC(=O)c2cc([N+](=O)[O-])ccc2N2CCOCC2)cc1F -2.2%, CC1(CCc2ccc(O)cc2)NC(=O)NC1=O (centres undefined) -0.179%, O=c1cc(-c2ccc(F)cc2)[nH][nH]1 0.0278%, CCN(CC)S(=O)(=O)c1ccc(N2CCOCC2)c(NC(=O)c2[nH]c(C)c(C(C)=O)c2C)c1 -12.8%, CCN(c1cccc(C)c1)S(=O)(=O)c1ccc(-c2cc(C)no2)s1 -2.75%, COc1ccc(OC)c(C2C3=C(COC3=O)Nc3cc4c(cc32)OCO4)c1 (centres undefined) -1.69%, Oc1ccc(NCc2ccccc2OCc2ccccc2)cc1 -13.7%, COc1ccc(/C=N/NC(=O)C(=O)N2CCCCCC2)cc1[N+](=O)[O-] -0.482%, COc1cc(OC)cc(C(=O)Oc2c(CN3CCOCC3)cc(Cl)c3cccnc23)c1 -0.47%, CNC(=S)N/N=C(\C)c1ccc(Cl)s1 -3.11%, CC(=O)c1ccc2c(c1)CC(C)C(=O)N2C (centres undefined) -0.581%, O=[N+]([O-])c1cc(Cl)c2cccnc2c1O -1.59%, Cc1nnc2ccc(-c3ccc(NS(=O)(=O)c4ccccc4[N+](=O)[O-])cc3)nn12 -2.67%, CCOc1cccc(/C=C/c2ccc3cccc(O)c3n2)c1OC -19.1%, COc1ccc2cc(C3c4cc(OC)c(OC)cc4CCN3C(=O)c3ccco3)c(=O)[nH]c2c1 (centres undefined) -1.32%, COc1ccc(-c2nn(-c3ccccc3)cc2/C=N/NC(N)=S)cc1OC -9.92%, O=C1CC(c2ccccc2)Cc2nc3ncnn3cc21 (centres undefined) 0.367%, CNc1nc(-c2ccc(OC)cc2)c(-c2ccc(OC)cc2)s1 -0.769%, O=C(Oc1c(CN2CCOCC2)cc(Cl)c2cccnc12)c1cccs1 -0.194%, O=[N+]([O-])c1cccnc1SCc1c(F)cccc1Cl -1.19%, Cc1ccc(NC(=O)C(=O)NCC2CCCN2S(=O)(=O)c2cccs2)cc1C (centres undefined) -0.0507%, Cc1ccc(NC(=S)NC(=O)c2ccc(F)cc2)cc1S(=O)(=O)Nc1cccc(Cl)c1 -2.28%, CNC(=O)[C@H]1O[C@@H](n2cnc3c(NCc4cccc(I)c4)nc(Cl)nc32)[C@H](O)[C@@H]1O -0.243%, C=CCn1c(SCC(=O)NCCO)nc2sc(C)c(C)c2c1=O -0.853%, COc1ccccc1-c1nnc2sc(-c3ccc(N(C)C)cc3)nn12 -1.68%, COc1ccc(NC(=O)/C(C#N)=C\c2cc(C)n(-c3ccc4c(c3)OCO4)c2C)cc1 -4.51%, O=C(c1ccc(Cl)cc1)c1cc([N+](=O)[O-])ccc1N1CCOCC1 -4.74%, CC(/C=N/NC(=O)c1cc(-c2ccccc2)nc2ccccc12)=C\c1ccco1 -1.08%, C=CCn1c(SCc2c(C)noc2C)nc2ccccc2c1=O -6.69%, CCCC(=O)Nc1ccc(C(=O)N/N=C/c2cccnc2)cc1 -0.0916%, Cc1ccc2nc(NC(=O)c3ccccn3)sc2c1 14.4%, Cc1ccnc(NC(=O)c2cccc(S(=O)(=O)Nc3ccc(C)cc3C)c2)c1 -2.93%, CCNC(=S)N/N=C(\C)c1ccc(Cl)s1 -2.08%, CC1CC(C)CN(S(=O)(=O)c2ccc(NC(=O)c3ccc(=O)[nH]c3)cc2)C1 (centres undefined) -2.1%, Cc1cc(C)c(S(=O)(=O)Nc2ccc3c4c(cccc24)CC3)c(C)c1 -5.19%, CCOC(=O)C1(C)C(C(=O)OC)=C(c2ccc(OC)cc2)c2ccccc2N1C(=O)OC (centres undefined) -2.24%, CC(=NNC(=O)c1cc(C)nc2ccccc12)c1ccc(N2CCOCC2)cc1 0.0416%, O=Cc1ccc(O)c2ncccc12 -0.452%, C/C(Cl)=C\Cn1c(O)c(N=NC(N)=S)c2cc(Br)ccc21 64.8%, COc1ccc(/C=N/NC(=O)c2ccc3c(c2)NC(=O)C(C)(C)O3)cc1OC -1.1%, COc1ccc(S(=O)(=O)N2CCCCC2)cc1NS(=O)(=O)c1cc(Cl)ccc1Cl -0.0248%, COc1cc(/C=N/NC(=O)C2C3CCCCC32C)cc(Br)c1O (centres undefined) -1.39%, COc1ccc(OC)c(Nc2c3c(nc4ccccc24)CCC3)c1 -0.775%, COC(=O)c1cn(C(=O)c2ccc(OC)cc2)c2ccccc12 -5.28%, O=C(/C=C/c1cccc(Cl)c1)c1nc2ccccc2[nH]1 0.678%, CCn1c(SCC(=O)c2ccc(Cl)cc2)nnc1C(C)C -1.19%, COc1ccc(S(=O)(=O)Nc2ccc3c(c2)n(C)c(=O)n3C)cc1F -0.825%, COc1cc(C#Cc2ccc3cc(CCCO)oc(=O)c3c2)cc(OC)c1 -11.1%, Cc1ccc(C(=O)c2cc([N+](=O)[O-])ccc2N2CCCCC2)c(C)c1 -5.12%, CC(=O)c1cc(C#N)c(SCCC(C)C)nc1C -0.523%, CCCSc1nc(=O)n2cccc(C)c2n1 0.711%, N#CC1=C2SCC(O)(c3ccccc3)N2C(=O)CC1c1ccccc1 (centres undefined) -7.68%, COc1ccc(NC(=O)C2CCCN2S(=O)(=O)c2cccc3cccnc23)cc1OC (centres undefined) -0.277%, CCOC(=O)C(C)/C(C)=N/NC(N)=S (centres undefined) -1.09%, CCN(C(=O)COC(=O)c1cc([N+](=O)[O-])ccc1N1CCOCC1)c1ccccc1 -0.198%, CNC(=O)[C@H]1O[C@@H](n2cnc3c(NCc4cccc(I)c4)ncnc32)[C@H](O)[C@@H]1O -0.832%, C[C@]12CC[C@H]3C(=CCc4cc(O)ccc43)[C@@H]1CCC2=O -1.6%, CCOCCOC(=O)c1[nH]c2c(c1C)C(=O)CC(c1ccccc1)C2 (centres undefined) -0.56%, COc1cc(/C=N/N(C)c2ccccc2)ccc1O 0.432%, CCOc1ccc2c(c1)OC(c1ccc(OC)cc1)(C(F)(F)F)NC2=O (centres undefined) -4.69%, CC1=NN(C(N)=S)C(=O)C1N=Nc1cccc(C)c1 (centres undefined) 2.43%, CCOc1cc(/C=N/O)ccc1OCc1ccccc1F -0.187%, COc1ccc(C2=NOC(C(=O)NCc3ccc(F)cc3)C2)cc1 (centres undefined) -0.587%, COc1ccc(/C=C/C(=O)c2cc(F)ccc2OC(=O)c2ccccc2C)cc1OC -6.24%, CCOC(=O)N1CCN(S(=O)(=O)c2ccc(C(=O)Nc3ccc(F)cc3F)cc2)CC1 -0.791%, COc1ccc(-c2cnnn2-c2ccc(N)cc2)cc1OC -1.14%, COc1cc(OC)c(OC)cc1/C=C/C(=O)c1ccc(NS(=O)(=O)c2ccc(C)cc2)cc1 -17.4%, O=C(Oc1ccc(Cl)c2cccnc12)C12CC3CC(CC(C3)C1)C2 -2.91%, COc1ccc(C=O)cc1OS(=O)(=O)c1ccc(NC(C)=O)cc1 -0.831%, O=C(Nc1nc2c(F)cc(F)cc2s1)c1ccccn1 15.7%, CC(O)c1cccc(-c2ccc(CN3C[C@]4(CO)O[C@@H](CO)C[C@@H]4S3(=O)=O)cc2)c1 (some centres undefined) -0.341%, CCOc1ccc(S(=O)(=O)N2c3ccccc3CC2C)cc1 (centres undefined) -2.53%, COc1ccc(/C(C)=N/Nc2ccc(C(=O)O)cc2)cc1OC 18.1%, CCc1ccc(S(=O)(=O)Nc2ccc(-c3ccc4nnc(C)n4n3)cc2)s1 -3%, CCOc1ccc(C2=Nn3c(nnc3-c3ccccc3OC)SC2)cc1 -7.45%, CCOC(=O)C1CCN(C(=O)CSc2cc(=O)n(CC)c3ccccc23)CC1 -4.1%, Oc1ccc(Nc2nc(-c3cccnc3)cs2)cc1 -4.58%, COc1ccccc1N1CCN(Cc2ccc(O)c3ncccc23)CC1 -3.1%, CN1CCc2cccc3c2[C@H]1Cc1ccc(O)c(O)c1-3 -15.5%, COc1ccccc1-c1noc(CSc2nc(N)cc(=O)[nH]2)n1 0.632%, Cc1nc2ccc(S(=O)(=O)Nc3cccc(-c4nc5cccnc5s4)c3)cc2s1 -0.852%, COc1cc(C(=O)N/N=C/c2ccsc2C)cc(OC)c1OC -1.4%, O=C1Nc2ccc(Cl)cc2/C1=C/C1CC=CCC1 (centres undefined) -1.9%, COc1cc(/C=N/NC(=S)Nc2cccnc2)cc(OC)c1OC -2.43%, Cc1c(CCC(=O)N[C@@H](C)C(=O)O)c(=O)oc2cc3oc4c(c3cc12)CCCC4 -0.942%, COc1ccc(N2C(=O)CS/C2=N\C(=S)Nc2ccccc2)cc1 -0.277%, C=CCn1c(O)c(N=NC(=S)Nc2ccccc2C)c2cc(S(=O)(=O)N3CCOCC3)ccc21 -12.1%, COc1cc(C(=O)Nc2nc(C)c(Cc3ccc4c(c3)OCO4)s2)cc(OC)c1OC -6.45%
